In all, about 310,000 compounds went through this assay and about 2,200 (0.71%) showed an effect of 50% or more. The effect is printed as a negative number. The list shows a part of the results.
target: human ether-à-go-go-related gene (hERG) potassium channel (human, UniProt Q12809); assay: primary screen, population patch clamp on CHO cells stably expressing hERG
Sequence (Q12809 whole entry, looked up): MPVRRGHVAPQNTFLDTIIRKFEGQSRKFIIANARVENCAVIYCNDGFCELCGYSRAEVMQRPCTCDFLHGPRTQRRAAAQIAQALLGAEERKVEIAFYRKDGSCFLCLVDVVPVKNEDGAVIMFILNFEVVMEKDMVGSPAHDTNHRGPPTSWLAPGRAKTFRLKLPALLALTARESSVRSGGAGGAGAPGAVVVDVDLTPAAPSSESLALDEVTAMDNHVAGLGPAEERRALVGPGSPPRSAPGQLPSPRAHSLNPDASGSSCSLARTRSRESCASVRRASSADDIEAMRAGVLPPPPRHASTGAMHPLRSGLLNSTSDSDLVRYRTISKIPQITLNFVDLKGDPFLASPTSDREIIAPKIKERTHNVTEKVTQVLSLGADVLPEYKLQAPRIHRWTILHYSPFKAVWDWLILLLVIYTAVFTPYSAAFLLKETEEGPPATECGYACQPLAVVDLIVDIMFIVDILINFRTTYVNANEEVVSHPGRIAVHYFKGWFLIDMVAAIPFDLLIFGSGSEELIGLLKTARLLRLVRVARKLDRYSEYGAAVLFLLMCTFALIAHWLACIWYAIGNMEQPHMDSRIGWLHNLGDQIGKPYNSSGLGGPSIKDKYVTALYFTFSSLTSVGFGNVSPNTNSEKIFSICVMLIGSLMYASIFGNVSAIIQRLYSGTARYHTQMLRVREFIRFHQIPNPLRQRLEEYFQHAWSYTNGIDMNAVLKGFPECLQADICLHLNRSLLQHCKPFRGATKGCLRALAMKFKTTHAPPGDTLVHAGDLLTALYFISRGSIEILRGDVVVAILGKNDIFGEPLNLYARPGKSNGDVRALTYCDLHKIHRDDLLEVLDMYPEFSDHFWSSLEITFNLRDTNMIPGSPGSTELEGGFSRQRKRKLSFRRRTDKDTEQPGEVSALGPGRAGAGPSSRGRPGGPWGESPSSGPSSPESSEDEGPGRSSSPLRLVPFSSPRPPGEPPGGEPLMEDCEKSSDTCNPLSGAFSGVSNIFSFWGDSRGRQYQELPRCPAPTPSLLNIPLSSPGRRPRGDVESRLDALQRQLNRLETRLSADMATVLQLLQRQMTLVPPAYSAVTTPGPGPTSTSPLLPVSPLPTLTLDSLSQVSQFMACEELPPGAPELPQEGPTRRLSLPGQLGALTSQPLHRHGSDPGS

| SMILES | hERG current change (%, negative = inhibition) at 1uM |
| --- | --- |
| O=C(Nc1ccc(SC(F)F)cc1)c1cc(-c2ccncc2)nc2ccccc12 | -2.06% |
| Cc1ccc(S(=O)(=O)N[C@H](C(=O)NCC2CCC(C(=O)O)CC2)C(C)C)cc1 (stereo partly drawn) | 8.88% |
| CC(=O)Nc1ccc(-c2ccnc(-c3ccc(NC(C)=O)cc3)n2)cc1 | 2.64% |
| Cc1cccc(C)c1NC(=O)COC(=O)c1ccccc1[N+](=O)[O-] | 11.7% |
| CC(C)Nc1nc(Oc2ccc(=O)n(-c3ccccc3)n2)nc(N(C)C)n1 | 9.37% |
| CC(C)CSc1nc(N2CCOCC2)c2c(c1C#N)CC(C)(C)SC2 | 3.74% |
| CCN(CC)c1ccc(NC(=O)c2ccc(=O)[nH]c2)cc1S(=O)(=O)Nc1ccccc1OC | 8.97% |
| Br.COc1ccc(-c2csc(CCN3N=C(C)CC3=O)n2)cc1 | 12.5% |
| COc1cc(NC(=O)CN2C(=O)NC(C)(c3ccc(OC(F)F)cc3)C2=O)cc(OC)c1OC (stereo not drawn) | 10.6% |
| COc1ccc(-c2ccc(CCC(=O)O)n2CC(C)C)cc1 | 3.17% |
| C/C(=N\NC(=O)CC(C)C)c1ccc(Cl)c(Cl)c1 | 34.8% |
| CCc1ccc(OCC(=O)N2CCN(CC(=O)Nc3ccccc3Cl)CC2)cc1 | -23.9% |
| CC(C)N(C(=O)Cn1c(SCC(=O)N2CCN(c3ccccc3)CC2)nc2ccccc21)C(C)C | 12.3% |
| CC(=O)CCCC(NS(=O)(=O)CCC(Cl)(Cl)Cl)c1ccccc1 (stereo not drawn) | 8.94% |
| Cc1ccc(NC(=O)CCC(=O)NNC(=O)c2ccco2)cc1C | 3.97% |
| CCCCNC(=O)CC1N=C2c3ccccc3N=C(SCC(=O)Nc3ccccc3C)N2C1=O (stereo not drawn) | 5.85% |
| Cc1n[nH]c(=O)c2c(NC(=O)CSc3nnnn3-c3ccc(O)cc3)oc(C)c12 | 17.8% |
| O=C(c1sc2ccccc2c1Cl)N(Cc1cccs1)C1CCS(=O)(=O)C1 (stereo not drawn) | 5.18% |
| COc1ccccc1N1CCN(S(=O)(=O)c2ccc(Cl)s2)CC1 | 5.51% |
| O=C(COC(=O)c1ccccc1Cl)Nc1cccnc1Cl | 7.73% |
| Cc1ccccc1Nc1cc(C(=O)NCc2ccco2)c2ccccc2n1 | 9.23% |
| CC(NC(=O)/C(C#N)=C1\N=C(NC(=O)c2ccco2)c2ccccc21)c1ccccc1 (stereo not drawn) | 9.2% |

| SMILES | hERG current change (%, negative = inhibition) at 1uM |
| --- | --- |
| COc1ccc(-c2nnc(SCC(=O)N3CCc4ccccc4C3)o2)cc1 | 1.44% |
| CCOc1ccc(CCNC(=O)c2cccc(S(=O)(=O)N3CCCC3)c2)cc1OCC | -8.1% |
| CC(OC(=O)c1ccco1)C(=O)NCc1ccc2c(c1)OCO2 (stereo not drawn) | 12.8% |
| FC(F)(F)c1cc(-c2ccccc2)nc(N2CCCCCC2)n1 | 11.7% |
| CSCC[C@H](NC(=O)Nc1ccc(Oc2ccccc2)cc1)C(=O)O | 12.3% |
| COc1cc(OC)cc(C(=O)NCCC(=O)NCCc2ccc(OC)c(OC)c2)c1 | 4.96% |
| CCN(CC)S(=O)(=O)c1ccc(OC)c(NC(=O)c2cn(CC)c3nc(C)ccc3c2=O)c1 | 15% |
| Cc1cccc(OCCCn2ccnc2)c1 | 0.0693% |
| O=c1c2sccc2nc(SCc2cc(=O)n3cc(Cl)ccc3n2)n1-c1ccc(F)cc1 | 7.01% |
| Cc1ccccc1NC(=O)Cn1nc(C(=O)O)c2ccccc2c1=O | 11.3% |
| CCN(CC)CCCNc1nc(N)c([N+](=O)[O-])c(NCCO)n1 | 9.54% |
| Cc1ccccc1CN1CCN(CC(=O)NC(C)c2ccccc2)CC1 (stereo not drawn) | 3.82% |
| COc1ccc(N/C=C2/CCCCC2=O)cc1 | 3.34% |
| COc1ccc(OCC(=O)N2CCN(C3CCC(c4ccccc4)CC3)CC2)cc1 (stereo not drawn) | -5.45% |
| CSc1nsc(N/N=C/c2ccccc2)c1C#N | 11.9% |
| Cc1ccc(/C=C/C(=O)OCC(=O)NC(C)c2ccccc2)o1 (stereo not drawn) | 8.83% |
| O=C(NC1(C(F)(F)F)NC(=O)N(CC2CCCCC2)C1=O)c1ccco1 (stereo not drawn) | 11.1% |
| CCN(C(=O)Cn1c(=O)n(Cc2ccccc2)c(=O)c2ccccc21)c1cccc(C)c1 | 6.17% |
| CCC(=O)OCC(=O)Nc1cc([N+](=O)[O-])ccc1Cl | 12.8% |
| CCC(CO)Nc1nc2ccc(Cl)cc2c2ccccc12 (stereo not drawn) | 15.9% |
| O=C(NC1CCCCC1)C(=S)NC1CCCCC1 | 19.8% |
| CC(C)(C)c1ccc(C(=O)Nc2ccc([N+](=O)[O-])cn2)cc1 | 9.99% |

| SMILES | hERG current change (%, negative = inhibition) at 1uM |
| --- | --- |
| Cc1cccc(C)c1NC(=S)N/N=C/c1ccccc1C(=O)O | 15.4% |
| CN(C)C(CNC(=O)CNC(=O)c1ccc(Br)cc1)c1ccccc1 (stereo not drawn) | 0.489% |
| COCC(=O)Nc1nnc(COc2ccccc2)s1 | 9.91% |
| Cc1sc(-c2ccccn2)nc1OC(=O)c1ccc(Cl)cc1 | 12% |
| Cc1csc2ncc(C(=O)Nc3ccccc3Cl)c(=O)n12 | 3.77% |
| Cc1ccc(S(=O)(=O)n2nccc2-c2c(-c3ccccc3)noc2C)cc1 | 12% |
| CCOC(=O)c1c(CN2CCOCC2)n(-c2ccccc2)c2cc(Br)c(O)cc12.Cl | 9.93% |
| COc1ccc(CCN2C(=O)CC(NCc3ccc4c(c3)OCO4)C2=O)cc1OC (stereo not drawn) | 3.91% |
| CCN1C(=O)/C(=C/C=C2/SCCN2C)SC1=S | 13.3% |
| O=C(Nc1nc(-c2ccccc2)c(-c2ccccc2)s1)c1ccc(S(=O)(=O)N(CCCl)CCCl)cc1 | 1.44% |
| O=C(Cn1nc(C(F)F)cc1C(F)F)NNC(=S)Nc1ccc([N+](=O)[O-])cc1 | 11.9% |
| CC(=O)NC(CSC(CC(=O)c1ccco1)c1ccc(C)cc1)C(=O)O (stereo not drawn) | 26.7% |
| CCOC(=O)C(C(=O)c1ccccc1)C1CC(C)NC(=S)N1 (stereo not drawn) | -1.21% |
| Cc1ccc(S(=O)(=O)NCc2ccccc2)cc1 | 14.8% |
| COC(=O)c1ccc(C2C(C(=O)c3ccc(C)o3)=C(O)C(=O)N2c2cc(C)on2)cc1 (stereo not drawn) | 24.1% |
| COc1ccc(CNS(=O)(=O)c2ccc(-n3cccn3)cc2)cc1 | 6.54% |
| Cc1cc(C)c(NC(=O)CNC(=O)COC(=O)C2=COCCO2)c(C)c1 | 7.04% |
| O=C(O)C1=C[C@@H](c2coc3ccccc3c2=O)C[C@@H](OCc2ccc(CO)cc2)O1 | 2.17% |
| Cc1nc(C2CCCCC2)c(-c2ccccc2)c(N2CCOC2=O)c1C | 13.5% |
| O=C(Nc1ccc2c(c1)OCO2)C1CCN(C(=O)c2ccc(Cl)cc2)CC1 | -59.6% |
| Cc1ccc(C)c(NC2=NCCCS2)c1 | 2.66% |
| O=C(CCN1C(=O)/C(=C/c2ccccc2F)SC1=S)Nc1cccnc1 | 9.81% |

| SMILES | hERG current change (%, negative = inhibition) at 1uM |
| --- | --- |
| COc1cccc(CNC(=O)C(Cc2ccccc2)n2cccc2)c1 (stereo not drawn) | 5.82% |
| COc1cc2c(cc1OC)C(c1ccc(-c3cc(Cl)ccc3Cl)o1)=NCC2 | -0.62% |
| O=C(NC1CCCCC1)C(c1ccccc1)N1CCc2ccccc21 (stereo not drawn) | 3.05% |
| O=C(NNC(=O)c1ccccc1-c1ccccc1C(=O)O)c1cccc([N+](=O)[O-])c1 | -3.69% |
| Cc1ccc(N2C(=O)C3C4C=CC(CNC(=S)N5CCN(c6ccccn6)CC5)(O4)C3C2=O)cc1 (stereo not drawn) | 8.44% |
| CC(C)c1ccccc1OCC(=O)N(C)CC(=O)Nc1ccc(F)cc1 | -4.57% |
| CCOc1ncccc1C(=O)OCC(=O)N(CC(C)C)C1CCS(=O)(=O)C1 (stereo not drawn) | 6.71% |
| COc1ccc(C(=O)COC(=O)C(CC(C)C)N2C(=O)c3ccccc3C2=O)cc1 (stereo not drawn) | -8.7% |
| COCC(=O)Nc1cc(OC)cc(OC)c1 | 11.4% |
| O=[N+]([O-])c1ccc(C(O)CN2CCN(Cc3ccccc3)CC2)cc1 (stereo not drawn) | -73% |
| Cc1cnc(C(=O)Nc2nnc(C)s2)cn1 | 7.37% |
| COc1cc(OC)cc(C(=O)NC(C(=O)Nc2ccc3nc(C)sc3c2)C(C)C)c1 (stereo not drawn) | 11.4% |
| CCOC(=O)C(C)On1c(-c2ccccc2)nc2ccc([N+](=O)[O-])cc21 (stereo not drawn) | -7.92% |
| COc1cc(NC(=O)c2ccco2)ccc1NC(=O)c1ccccc1Cl | 8.83% |
| CC(C)OCCCn1c(=O)c2ccccc2n2c(CCC(=O)O)nnc12 | 16.4% |
| Cc1nn(-c2ccccc2)c(Cl)c1C(=O)OCC(=O)N(C)c1c(N)n(Cc2ccccc2)c(=O)[nH]c1=O | 0.852% |
| COc1ccc(CNC(=O)COC(=O)CCn2c(C)csc2=O)cc1OC | 3.29% |
| COc1ccc(C(=O)Cn2cnc3ccccc3c2=O)cc1 | 8.78% |
| C#CCn1c(S(=O)(=O)Cc2ccc(C)cc2)nc(-c2ccccc2)c1-c1ccccc1 | 18.3% |
| CC(=O)Nc1ccc(S(=O)(=O)Nc2ccccn2)cc1 | 15.5% |
| Cc1cccc(NC(=O)CSc2nnc(Cc3ccccc3)o2)c1 | 2.75% |
